# Measurements: publication PMC4336329 (PLoS ONE, 2015)
# About 14,000 (4.5%) of roughly 310,000 compounds showed an effect of 50% or more. Effects have a minus sign here. The list shows a part of the results.
# Target: human ether-à-go-go-related gene (hERG) potassium channel (human, UniProt Q12809)
# Experiment: primary screen, population patch clamp on CHO cells stably expressing hERG
# 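Also: peak tail current of the secondary pulse compared with the same well before compound.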
# Chain of human ether-à-go-go-related gene (hERG) potassium channel (Q12809 whole entry, looked up): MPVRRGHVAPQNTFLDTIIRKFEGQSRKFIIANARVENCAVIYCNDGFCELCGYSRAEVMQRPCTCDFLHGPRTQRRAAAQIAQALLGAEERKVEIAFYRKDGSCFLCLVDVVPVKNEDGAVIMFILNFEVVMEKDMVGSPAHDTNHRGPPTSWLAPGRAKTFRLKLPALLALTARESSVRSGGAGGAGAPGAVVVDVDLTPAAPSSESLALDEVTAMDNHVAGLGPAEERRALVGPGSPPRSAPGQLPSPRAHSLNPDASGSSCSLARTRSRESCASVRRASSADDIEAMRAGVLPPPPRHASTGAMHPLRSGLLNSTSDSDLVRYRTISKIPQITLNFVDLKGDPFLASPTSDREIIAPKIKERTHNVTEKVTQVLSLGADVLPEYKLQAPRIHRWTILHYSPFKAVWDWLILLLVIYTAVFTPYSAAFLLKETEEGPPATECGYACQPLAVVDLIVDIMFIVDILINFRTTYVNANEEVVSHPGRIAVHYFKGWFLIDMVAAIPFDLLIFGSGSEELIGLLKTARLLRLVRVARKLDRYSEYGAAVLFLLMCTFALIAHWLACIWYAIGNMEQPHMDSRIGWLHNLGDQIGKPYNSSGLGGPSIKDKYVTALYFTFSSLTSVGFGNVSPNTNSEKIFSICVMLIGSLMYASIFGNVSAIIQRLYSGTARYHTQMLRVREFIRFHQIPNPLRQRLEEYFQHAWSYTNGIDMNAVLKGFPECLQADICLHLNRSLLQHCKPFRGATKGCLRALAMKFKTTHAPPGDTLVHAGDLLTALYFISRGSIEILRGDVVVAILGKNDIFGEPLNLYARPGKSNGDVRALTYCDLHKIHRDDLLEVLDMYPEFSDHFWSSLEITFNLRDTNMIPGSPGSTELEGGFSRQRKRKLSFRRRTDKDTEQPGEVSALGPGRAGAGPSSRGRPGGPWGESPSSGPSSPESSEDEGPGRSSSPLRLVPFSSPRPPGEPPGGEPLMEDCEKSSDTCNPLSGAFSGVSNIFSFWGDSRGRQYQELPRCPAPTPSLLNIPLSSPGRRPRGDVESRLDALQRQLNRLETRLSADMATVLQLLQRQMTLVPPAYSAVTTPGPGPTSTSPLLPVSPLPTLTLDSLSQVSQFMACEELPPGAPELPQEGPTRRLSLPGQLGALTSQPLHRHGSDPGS
row,SMILES,"hERG current change (%, negative = inhibition) at 10uM [%]"
1,O=C(CC1C(=O)NCCN1Cc1cccc(C(F)(F)F)c1)NCCc1cnccn1 (stereo not shown),7.22
2,CCOC(=O)C1CCCN(C(=O)Cn2nc(C)c3c(C)n(-c4ccccc4)nc3c2=O)C1 (stereo not shown),14.5
3,CCCCCCNS(=O)(=O)c1ccc(OC)c(OC)c1,-11
4,Cc1cc2ncn(/N=C/c3cccnc3)c2cc1C,-6.12
5,CC1(c2ccccc2)CC(C)(C)N2C(=O)/C(=C3\SC(=S)NC3=O)c3cccc1c32 (stereo not shown),-0.561
6,COc1ccc(OC)c(Cc2nnc(CCC(=O)NC3C4CC5CC(C4)CC3C5)o2)c1 (stereo not shown),-12.7
7,O=C(COc1ccc(Cl)cc1Cl)NNC(=O)c1cccnc1,-5.31
8,Cn1ncc(Cl)c1C(=O)N1CCN(c2ccc(F)cc2)CC1,5.04
9,Br.O=C(CN1C2=NCCN2c2ccccc21)c1ccc2c(c1)OCO2,-60.9
10,Cc1ccc(NS(=O)(=O)c2cccc(C(=O)NCc3ccccn3)c2)cc1,-68.5
11,N#Cc1cccc(S(=O)(=O)NCC(=O)OCC(=O)c2ccc[nH]2)c1,6.5
12,CS(=O)(=O)N1CCN(c2ccc(NC(=O)c3ccc(-c4ccc(Cl)cc4)o3)cc2)CC1,-10.6
13,CCc1c(C)c2ccc(OCC(N)=O)cc2oc1=O,-0.688
14,O=C(Cc1ccsc1)NNC(=O)c1ccc(F)cc1,-18.8
15,Cc1cc(=O)oc2cc(OCC(=O)N3C[C@H]4C[C@@H](C3)c3cccc(=O)n3C4)c(Cl)cc12,7.12
16,O=C(Nc1ccc(CSc2ccccc2)cc1)c1ccco1,8.8
17,CSCC[C@H](NC(=O)N1CCn2c1nc1ccccc12)C(=O)NCc1ccc(F)cc1,-49.6
18,CCCSC1=N/C(=C\c2ccc3c(c2)OCO3)C(=O)S1,10.6
19,CC1Sc2ccc(S(=O)(=O)CCC(=O)N3CCN(c4ccccc4F)CC3)cc2NC1=O (stereo not shown),8.15
20,O=C1C2C3C=CC(C3)C2C(=O)N1c1ccccc1OS(=O)(=O)c1ccccc1 (stereo not shown),3.59

row,SMILES,"hERG current change (%, negative = inhibition) at 10uM [%]"
1,CCn1cnc2c1c(=O)n(Cc1csc(-c3ccccc3)n1)c(=O)n2Cc1ccccc1,-7.62
2,CCC(=O)Nc1c(-c2ccc(Cl)cc2)c(=O)c2ccccc2n1C,3.11
3,O=C(NCc1ccc2c(c1)OCO2)C(c1ccco1)N(C(=O)c1csnn1)c1ccccc1 (stereo not shown),-6.3
4,CCOc1ccccc1C1NC(=O)NC(C)=C1C(=O)OC1CCCC1C (stereo not shown),-8.61
5,O=C1OC(=O)c2c(Br)c(Br)c(Br)c(Br)c21,20.7
6,CC(NC(=O)OCc1ccccc1)C(=O)OCN1C(=O)c2ccccc2C1=O (stereo not shown),3.4
7,N#C/C(N)=C(/C#N)N=Cc1cccc(Cl)c1,4.99
8,C=CCN1C(=O)CSc2ccc(C(=O)NCc3ccc(F)cc3)cc21,-21.3
9,O=C(O)c1cc(N/N=C2/CC(c3ccccc3)Oc3ccccc32)ccc1Cl (stereo not shown),-2.45
10,Cn1c(-c2ccccc2O)cc2ccccc21,-1.56
11,COc1cccc(NC2CC(=O)N(CCc3ccccc3)C2=O)c1 (stereo not shown),-1.13
12,OC1NC(=S)N(c2ccccc2)C1O (stereo not shown),8.96
13,S=c1[nH]nc(-c2cccnc2)n1-c1ccccc1,22.9
14,CCc1nnc(NC(=O)CSc2nnc(-c3ccc(OC)cc3)n2C)s1,10.5
15,O=C1CN(C(=O)COC(=O)c2ccccc2NCc2ccco2)c2ccccc2N1,-2.84
16,O=C(Nc1ccnn1C1CCN(C(=O)c2cc(Cl)ccc2F)CC1)C1CCOC1 (stereo not shown),23.6
17,COC(=O)c1ccc(NC(=S)Nc2ccccn2)cc1,22.9
18,Cc1cccc(NC(=O)c2ccccc2NC(=O)Cc2ccccc2)c1C,4.93
19,CCc1ccc(N2CC(C(=O)NC3CC3)CC2=O)cc1 (stereo not shown),14.2
20,Cc1cc(N2CCN(C(=O)c3ccco3)CC2)n2nc(C)nc2n1,-44

row,SMILES,"hERG current change (%, negative = inhibition) at 10uM [%]"
1,CCN(C(=O)CSc1nnc(-c2cccs2)n1N)c1c(N)n(Cc2ccccc2)c(=O)[nH]c1=O,0.193
2,CCn1c(COC(=O)CNC(=O)c2ccccc2F)nc2cc(S(=O)(=O)N(C)C)ccc21,-14.8
3,Cc1ccccc1-n1c(C)cc(/C=N/NC(=O)c2ccncc2)c1C,-3.05
4,Cc1ccc(OCCCC(=O)N(C)CC(=O)Nc2ccccc2Br)cc1,-23.5
5,CCNS(=O)(=O)c1ccc2nc(NC(=O)c3cccnc3)sc2c1,-1.78
6,Cc1cccc(NC(=O)NC2CCCc3ccccc32)c1 (stereo not shown),14.5
7,c1ccc(-c2nc3ccccc3c3nncn23)cc1,0.662
8,CC(C)C(=O)NC(=S)Nc1ccccc1C(=O)Nc1ccccc1,16.6
9,NS(=O)(=O)c1ccc(S(=O)(=O)N2CCCC2)cc1,6.7
10,C[C@@H](O)CC(=O)[O-].[Na+],-6.57
11,Cc1ccc(C)c(SCC(=O)NC(=O)NC2CCCC2)c1,-12.3
12,CC(=O)c1ccc(NC(=O)CSc2nc(=O)n(CCN3CCOCC3)c3c2CCC3)cc1,-7.74
13,O=C1c2ccsc2SCCN1Cc1cccc(Cl)c1,-12.2
14,O=C(NNC(=O)c1ccc(S(=O)(=O)N2CCCCC2)cc1)c1ccccc1,8.54
15,Cc1cccc(C)c1OCC(=O)Nc1ncn[nH]1,18.2
16,Cl.Oc1ccccc1CNCC12CC3CC(CC(C3)C1)C2,-5.56
17,O=C1CNC(=O)N1,13.6
18,Cc1ccc2[nH]c(O)c(N=Nc3nc4ccccc4s3)c2c1,-4.7
